Measured values published in paper PMC4117486, “Investigation of Endoglin Wild-Type and Missense Mutant Protein Heterodimerisation Using Fluorescence Microscopy Based IF, BiFC and FRET Analyses” (PLoS ONE, 2014).
Like-named read-outs stand apart in the source and are kept apart here. No constants are given. Whether binding was seen depends on the method and setting. In cells and extracts the contact can be indirect. Where a sequence is shown, tags or fusion partners need not be part of it.

By UniProt entry, the sequences of proteins in these tests, tags left out. Residues count along the entry.
UniProt P37023, residues 22-503: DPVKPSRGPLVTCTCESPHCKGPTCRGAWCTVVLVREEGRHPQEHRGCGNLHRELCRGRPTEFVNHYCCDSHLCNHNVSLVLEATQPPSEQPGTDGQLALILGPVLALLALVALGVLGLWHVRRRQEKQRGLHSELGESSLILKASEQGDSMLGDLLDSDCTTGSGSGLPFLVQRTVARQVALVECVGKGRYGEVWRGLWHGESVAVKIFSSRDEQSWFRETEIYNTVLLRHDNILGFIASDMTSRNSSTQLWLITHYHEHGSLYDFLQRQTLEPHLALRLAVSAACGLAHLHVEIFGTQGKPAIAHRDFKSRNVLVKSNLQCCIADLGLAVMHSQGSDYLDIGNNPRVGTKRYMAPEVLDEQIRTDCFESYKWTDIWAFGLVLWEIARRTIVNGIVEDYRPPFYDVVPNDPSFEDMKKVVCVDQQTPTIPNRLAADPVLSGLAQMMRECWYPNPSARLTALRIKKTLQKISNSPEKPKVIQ

T1: endoglin G52V, EYFP-tagged (with an ECFP-tagged copy for the homodimer) (human) (UniProt P17813)
T1 sequence: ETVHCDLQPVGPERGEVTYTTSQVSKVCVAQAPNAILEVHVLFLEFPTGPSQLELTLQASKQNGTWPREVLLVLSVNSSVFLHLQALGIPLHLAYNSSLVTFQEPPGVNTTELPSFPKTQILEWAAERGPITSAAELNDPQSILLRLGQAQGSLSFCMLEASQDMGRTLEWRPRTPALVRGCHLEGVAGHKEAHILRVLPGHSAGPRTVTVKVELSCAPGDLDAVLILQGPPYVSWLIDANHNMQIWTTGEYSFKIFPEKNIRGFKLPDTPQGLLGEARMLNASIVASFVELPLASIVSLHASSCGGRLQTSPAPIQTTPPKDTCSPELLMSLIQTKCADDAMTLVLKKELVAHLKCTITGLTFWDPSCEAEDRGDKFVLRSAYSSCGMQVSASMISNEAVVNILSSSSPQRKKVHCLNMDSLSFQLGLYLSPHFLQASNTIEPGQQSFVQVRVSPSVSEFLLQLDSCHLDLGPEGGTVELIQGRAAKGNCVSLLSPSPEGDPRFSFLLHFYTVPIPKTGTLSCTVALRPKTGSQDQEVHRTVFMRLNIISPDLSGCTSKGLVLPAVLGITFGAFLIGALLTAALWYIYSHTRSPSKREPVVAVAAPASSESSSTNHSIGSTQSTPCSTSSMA

T2: endoglin S480C, EYFP-tagged (human, UniProt P17813 26-658, S480C)
T2 construct: endoglin (CD105), human, missense mutant S480C (found in a Scottish HHT family); site-directed mutagenesis on pCMV5-endoglin wild type, moved into pEYFP-N1; also called mutant S480C; source: CHO cells, transiently co-transfected (50 ng of each construct per 100 000 cells), in living cells; not shown: EYFP, C-terminal, kept
T2 sequence (looked up): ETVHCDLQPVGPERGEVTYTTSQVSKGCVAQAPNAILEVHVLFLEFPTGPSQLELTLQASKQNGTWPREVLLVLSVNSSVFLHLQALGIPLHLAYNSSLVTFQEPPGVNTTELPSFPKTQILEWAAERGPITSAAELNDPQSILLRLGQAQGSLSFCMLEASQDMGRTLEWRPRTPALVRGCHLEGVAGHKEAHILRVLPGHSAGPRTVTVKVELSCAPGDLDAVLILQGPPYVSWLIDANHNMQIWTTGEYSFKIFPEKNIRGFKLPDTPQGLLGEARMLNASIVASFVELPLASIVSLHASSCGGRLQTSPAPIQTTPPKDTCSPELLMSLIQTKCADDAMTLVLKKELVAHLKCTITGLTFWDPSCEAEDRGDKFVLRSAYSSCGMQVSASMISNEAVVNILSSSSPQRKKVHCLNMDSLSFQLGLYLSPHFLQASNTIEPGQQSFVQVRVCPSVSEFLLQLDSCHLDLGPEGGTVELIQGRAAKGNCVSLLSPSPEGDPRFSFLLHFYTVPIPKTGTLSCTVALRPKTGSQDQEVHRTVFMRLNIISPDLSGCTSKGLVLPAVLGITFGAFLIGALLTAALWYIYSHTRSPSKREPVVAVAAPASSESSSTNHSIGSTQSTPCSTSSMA

T3: endoglin wild-type, EYFP- or ECFP-tagged (human, UniProt P17813 26-658)
T3 construct: endoglin (CD105), human, wild type; EYFP-tagged with the ECFP-tagged receptors and with soluble ECFP; ECFP-tagged with the EYFP-tagged mutants; both versions together for the homodimer; also called endoglin^wt-EYFP; endoglin^wt-ECFP; source: CHO cells, transiently co-transfected (50 ng of each construct per 100 000 cells), in living cells; not shown: EYFP (acceptor) or ECFP (donor), C-terminal, …
T3 sequence (looked up): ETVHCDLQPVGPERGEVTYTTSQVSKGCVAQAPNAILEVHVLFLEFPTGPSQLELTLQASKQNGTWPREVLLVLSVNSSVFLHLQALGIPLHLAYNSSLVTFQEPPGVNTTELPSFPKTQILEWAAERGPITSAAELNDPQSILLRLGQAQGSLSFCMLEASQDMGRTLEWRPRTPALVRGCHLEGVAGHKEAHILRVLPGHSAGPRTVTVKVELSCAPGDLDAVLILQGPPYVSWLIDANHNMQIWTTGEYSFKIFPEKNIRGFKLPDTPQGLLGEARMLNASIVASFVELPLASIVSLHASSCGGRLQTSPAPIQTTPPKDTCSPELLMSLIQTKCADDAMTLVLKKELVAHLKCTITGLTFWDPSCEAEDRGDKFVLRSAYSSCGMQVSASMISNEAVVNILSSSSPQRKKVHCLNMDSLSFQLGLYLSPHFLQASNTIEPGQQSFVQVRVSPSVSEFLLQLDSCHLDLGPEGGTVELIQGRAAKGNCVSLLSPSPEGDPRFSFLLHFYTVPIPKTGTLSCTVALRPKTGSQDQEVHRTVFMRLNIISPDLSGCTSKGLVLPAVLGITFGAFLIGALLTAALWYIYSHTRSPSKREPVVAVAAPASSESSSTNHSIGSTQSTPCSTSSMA


What was measured:
Assay in all cases: FRET or BRET; microscopic FRET in living CHO cells, ECFP donor and EYFP acceptor, 50 ng of each construct per 100 000 cells, 24 h after transfection, HEPES buffered ringer solution; FRET index (FI) = FRET efficiency x area with FRET; FI<51 no interaction, 51-99 weak or false positive, >=100 interaction; at least 30 cells per sample
[1] = molecular target: T1, endoglin G52V, EYFP-tagged (with an ECFP-tagged copy for the homodimer) (human)
[2] = molecular target: T2, endoglin S480C, EYFP-tagged
[3] = molecular target: T1, endoglin G52V, EYFP-tagged (with an ECFP-tagged copy for the homodimer) (human); remark: listed apart in the source
[4] = molecular target: T3, endoglin wild-type, EYFP- or ECFP-tagged

Row | binding [1] | binding [2] | binding [3] | binding [4] | Molecule
1 | no binding | no binding | – | – | ALK1, ECFP- or EYFP-tagged (from UniProt P37023 22-503) (receptor)
2 | – | – | no binding | no binding | integrin-alpha-6-ECFP (receptor, UniProt P23229 24-1130) FNLDTREDNVIRKYGDPGSLFGFSLAMHWQLQPEDKRLLLVGAPRAEALPLQRANRTGGLYSCDITARGPCTRIEFDNDADPTSESKEDQWMGVTVQSQGPGGKVVTCAHRYEKRQHVNTKQESRDIFGRCYVLSQNLRIEDDMDGGDWSFCDGRLRGHEKFGSCQQGVAATFTKDFHYIVFGAPGTYNWKGIVRVEQKNNTFFDMNIFEDGPYEVGGETEHDESLVPVPANSYLGLLFLTSVSYTDPDQFVYKTRPPREQPDTFPDVMMNSYLGFSLDSGKGIVSKDEITFVSGAPRANHSGAVVLLKRDMKSAHLLPEHIFDGEGLASSFGYDVAVVDLNKDGWQDIVIGAPQYFDRDGEVGGAVYVYMNQQGRWNNVKPIRLNGTKDSMFGIAVKNIGDINQDGYPDIAVGAPYDDLGKVFIYHGSANGINTKPTQVLKGISPYFGYSIAGNMDLDRNSYPDVAVGSLSDSVTIFRSRPVINIQKTITVTPNRIDLRQKTACGAPSGICLQVKSCFEYTANPAGYNPSISIVGTLEAEKERRKSGLSSRVQFRNQGSEPKYTQELTLKRQKQKVCMEETLWLQDNIRDKLRPIPITASVEIQEPSSRRRVNSLPEVLPILNSDEPKTAHIDVHFLKEGCGDDNVCNSNLKLEYKFCTREGNQDKFSYLPIQKGVPELVLKDQKDIALEITVTNSPSNPRNPTKDGDDAHEAKLIATFPDTLTYSAYRELRAFPEKQLSCVANQNGSQADCELGNPFKRNSNVTFYLVLSTTEVTFDTPDLDINLKLETTSNQDNLAPITAKAKVVIELLLSVSGVAKPSQVYFGGTVVGEQAMKSEDEVGSLIEYEFRVINLGKPLTNLGTATLNIQWPKEISNGKWLLYLVKVESKGLEKVTCEPQKEINSLNLTESHNSRKKREITEKQIDDNRKFSLFAERKYQTLNCSVNVNCVNIRCPLRGLDSKASLILRSRLWNSTFLEEYSKLNYLDILMRAFIDVTAAAENIRLPNAGTQVRVTVFPSKTVAQYSGVPWWIILVAILAGILMLALLVFILWKCGFFKRSRYDDSVPRYHAVRIRKEEREIKDEKYIDNLEKKQWITKWNENESYS
